Data reported in patent EP4130029A1 (ImmunOs Therapeutics AG, dated 2023).
Where a chain is given by its changes, count along the chain named. Numbers in names are those of the source. Values belong to the binder of their own block, whether it stands above or below them.

Assays:
[1] = target: T1, LILRB2 (c-terminally biotinylated, BPS Bioscience #100335) (UniProt Q8N423 22-460, limits assumed, C-terminal biotin); assay: ELISA; biotinylated LILRB2 on streptavidin plate, fusion protein titrated, APC anti-human IgG detection
T1 construct: It was immobilised on streptavidin plates for ELISA and on streptavidin biosensors for BLI; also called biotinylated LILRB2; innate immune receptor LILRB2

[2] = target: T1, LILRB2 (c-terminally biotinylated, BPS …); assay: BLI (Octet Red 96e); biotinylated LILRB2 on streptavidin biosensors, fusion protein as analyte, bivalent analyte (2:1) model

T1 sequence (Q8N423 22-460 limits assumed): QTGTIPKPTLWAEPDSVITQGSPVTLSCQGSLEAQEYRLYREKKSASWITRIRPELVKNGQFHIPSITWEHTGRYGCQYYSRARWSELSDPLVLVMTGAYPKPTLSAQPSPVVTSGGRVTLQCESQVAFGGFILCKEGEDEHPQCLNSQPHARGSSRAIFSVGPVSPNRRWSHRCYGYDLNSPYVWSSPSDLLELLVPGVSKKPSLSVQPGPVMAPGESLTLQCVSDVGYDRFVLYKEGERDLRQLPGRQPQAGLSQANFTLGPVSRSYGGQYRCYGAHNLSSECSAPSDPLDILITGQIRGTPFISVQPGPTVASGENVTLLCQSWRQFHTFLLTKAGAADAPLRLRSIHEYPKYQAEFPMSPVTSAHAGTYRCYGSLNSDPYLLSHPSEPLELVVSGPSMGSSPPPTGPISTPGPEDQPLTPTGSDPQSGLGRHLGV

EC50 [1]: 21 nM
B1: HLA-B57.OC (open conformer fusion protein of the natural HLA-B57:01:01 heavy chain extracellular domain and IgG4 Fc, lacking β2m) (Fc fusion)
MHC heavy: GSHSMRYFYTAMSRPGRGEPRFIAVGYVDDTQFVRFDSDAASPRMAPRAPWIEQEGPEYWDGETRNMKASAQTYRENLRIALRYYNQSEAGSHIIQVMYGCDVGPDGRLLRGHDQSAYDGKDYIALNEDLSSWTAADTAAQITQRKWEAARVAEQLRAYLEGLCVEWLRRYLENGKETLQRADPPKTHVTHHPISDHEATLRCWALGFYPAEITLTWQRDGEDQTQDTELVETRPAGDRTFQKWAAVVVPSGEEQRYTCHVQHEGLPKPLTLRWEPSSQSGGGGSGGGGS[here human IgG4 Fc with S228P (EU numbers) without letters]
notes: also called HLA-B57-Fc; natural HLA-B57-derived fusion protein control

EC50 [1]: 8.3 nM
Kd [2]: 20.3 nM
B2: HLA-B57(A46E/V97R).OC (open conformer variant HLA-B57:01 extracellular domain A46E V97R IgG4 fusion protein, lacking β2m) (Fc fusion)
MHC heavy: B1 MHC heavy with A46E, V97R
notes: β2m was removed under acidic conditions by size exclusion chromatography; also called HLA-B57^(A46E/V97R)-Fc
